Screen size: about 350,000 compounds; about 9,900 (2.8%) were called active. Inconclusive means that the source gave no clear call. Such entries were picked first, then a sample of the others. The call rests on the fitted dose curve; in most records, active means well fitted activation curve with a large enough effect; inconclusive means small, poorly fitted or top-dose-only effect; inactive means no such curve, though single readings can be large or run the other way. Potencies of inconclusive entries are left out as doubtful fits.
Assay: A quantitative high throughput screen for small molecules that induce DNA re-replication in MCF 10a normal breast cells. Further: nearly all actives have a fitted effect of over 50% in size.
Conditions: MCF 10A DNA re-replication, Hoechst nuclear intensity, 48 h; series mostly up to 46.1 µM
Potency means the concentration at half of the fitted maximal effect; tags describe the fitted curve by direction and shape.

Structure (SMILES) | Potency
Cc1cc(=O)n2c(C(=O)Nc3ccc(C(=O)OC(C)C)cc3)c(C(=O)Nc3ccccc3)sc2n1 | active: 16.4 µM
CCSc1nnc(-c2ccc(S(=O)(=O)N3CCOCC3)cc2)n1C | inconclusive [activator, full curve, poor fit]
COc1cccc(C=O)c1OCCCOc1cccc2cccnc12 | inconclusive [activator, single point]
N#Cc1c(NC(=O)/C=C/C(=O)O)sc2c1CCN(Cc1ccccc1)C2 | inconclusive [activator, single point]
Cc1ccccc1CSc1nn2c(=O)c(C)nnc2s1 | inconclusive [activator, single point]
Clc1ccc(CSc2nnc(-c3sccc3-n3cccc3)o2)cc1 | inconclusive [activator, partial curve, poor fit]
Oc1ccc(Nc2nc(-c3ccccc3F)nc3ccccc23)cc1 | inactive
O=S(=O)(NC1=NCCCCC1)c1ccc2sc(NS(=O)(=O)c3ccc4ccccc4c3)nc2c1 | inconclusive [activator, partial curve, poor fit]
COc1cccc(Nc2ncnc3c2cnn3-c2cccc(C)c2)c1 | inconclusive [activator, partial curve, poor fit]
COc1cccc(C(=O)Nc2nnc(-c3cccs3)s2)c1 | inconclusive [activator, partial curve, poor fit]
COC(=O)c1ccc(N=NNc2cccc(Br)c2)cc1 | inconclusive [activator, partial curve, poor fit]
CC1CCN(S(=O)(=O)c2ccc(NC(=O)c3ccncc3)cc2)CC1 | inconclusive [activator, partial curve, poor fit]
COC(=O)c1sc2nc(CSc3ccc(Br)cc3)[nH]c(=O)c2c1C | active: 14.6 µM
Cc1ccc2c(c1)c(N=Nc1cccc(C(=O)O)c1)c(O)n2C | inconclusive [activator, full curve]
COc1cc(C(=O)NC(=S)NCc2ccco2)cc(OC)c1OC | inconclusive [activator, full curve, poor fit]
CC1(C)OC(=O)C(=CNc2ccc(F)cc2)C(=O)O1 | inconclusive [activator, partial curve, poor fit]
c1ccc(-c2cc(-c3nc4ccccc4[nH]3)c3ccccc3n2)cc1 | inconclusive [activator, single point]
COc1cc(Br)ccc1C1CC(=O)C(C)C(c2ccc(Br)cc2OC)N1 (stereo not given) | inconclusive [activator, single point]
O=S(=O)(NCCSCc1c(Cl)cccc1Cl)c1ccc2c(c1)OCCO2 | inconclusive [activator, partial curve, poor fit]
O=C(Nc1cccc(NC(=O)c2ccc(-c3ccc(Br)cc3)o2)c1)c1ccco1 | inconclusive [activator, partial curve, poor fit]
O=C(CSc1nnc(Cc2cccs2)n1C1CCCCC1)N1CCCc2ccccc21 | inconclusive [activator, partial curve]
CC12CCC(=O)N1C(C(=O)Nc1ccccc1N1CCCC1)CS2 (stereo not given) | inconclusive [activator, partial curve, poor fit]

Structure (SMILES) | Potency
CN1CCN(C2Cc3ccc(F)cc3Sc3cc(F)c(Cl)cc32)CC1 (stereo not given) | inconclusive [activator, single point]
COCCNC(=O)/C(C#N)=C/c1cccc(/C=C(\C#N)C(=O)NCCOC)c1 | active: 20.6 µM
CC(C)(C)NC(=O)CC1C[C@H](C(=O)N2CCOCC2)[C@@]2(C)c3[nH]c4ccccc4c3CCN2C1=O (stereo not given in full) | inconclusive [activator, single point]
COc1cc(/C=C(\C#N)C(=O)Nc2cc(C(F)(F)F)ccc2Cl)ccc1OCC(=O)Nc1cccc(C(F)(F)F)c1 | active: 20.6 µM
CCN1C(=O)[C@H]2[C@@H](c3ccc(-c4ccccc4)cc3)N3CCCC[C@@]3(C(=O)OC)[C@H]2C1=O | inactive
O=C(CSCc1cccc(CSCC(=O)Nc2ccc3ccccc3c2)n1)Nc1ccc2ccccc2c1 | inactive
CC(C)CC1(C)NC(=O)N(CC(=O)Nc2ccccc2Br)C1=O (stereo not given) | inactive
CCCCn1c(CCC)nc([N+](=O)[O-])c1Sc1ccc(Cl)cn1 | inconclusive [activator, single point]
CCN(C[C@H]1N[C@@](Cc2ccccc2)(C(=O)OC)[C@H]2C(=O)N(C)C(=O)[C@@H]12)S(=O)(=O)c1ccc(OC(F)(F)F)cc1 | inactive
CNC(=O)Nc1ccccc1F | inconclusive [activator, partial curve, poor fit]
CCCCn1c(-c2ccsc2)nc2c1c(=O)[nH]c(=O)n2CCC | inconclusive [activator, partial curve, poor fit]
Cc1cc(C(=O)CSc2nnc(-c3ccccc3)o2)c(C)n1CC1COc2ccccc2O1 (stereo not given) | inconclusive [activator, partial curve]
O=C(N/N=C/c1ccccc1O)c1cccc(C(F)(F)F)c1 | inconclusive [activator, partial curve, poor fit]
COCc1cc(C)nc(SCC(=O)Nc2ccc3c(c2)OCCO3)c1C#N | inconclusive [activator, single point]
O=C(CSc1ncnc2ccccc12)Nc1cccc(S(=O)(=O)N2CCOCC2)c1 | inactive
CC(NCC(=O)Nc1ccccc1C(=O)NC1CC1)c1ccc(F)cc1F (stereo not given) | inactive
COc1ccc(-c2cc(C(F)F)n3ncc(C(=O)N4CCCCC4)c3n2)cc1 | inconclusive [activator, partial curve]
COCCCNCCCOc1ccc(Cl)cc1C(C)(C)C | inconclusive [activator, partial curve, poor fit]
CC(C)CN(CCNC(=O)CN1C(=O)COc2ccc(S(=O)(=O)N3CCC(C)CC3)cc21)CC(C)C | inactive
Cc1ccc(S(=O)(=O)NNC(=S)Nc2c(Cl)cccc2Cl)cc1 | inconclusive [activator, single point]
COc1cccc(CNC(=O)Cn2ccc3cc(S(=O)(=O)N4CCCC4)ccc32)c1 | inconclusive [activator, single point]
CCOc1ccc(/C(O)=C2/C(=O)C(=O)N(CCCN3CCOCC3)C2c2ccc(F)cc2)cc1C (stereo not given) | inactive

Structure (SMILES) | Potency
Nn1c(-c2ccco2)n[nH]c1=S | inactive
COc1cc(C)c(C)cc1S(=O)(=O)N1CCN(Cc2ccccc2)CC1 | inconclusive [activator, single point]
N#CC1CN(Cc2ccccc2)CN(Cc2ccccc2)C1 | active: 14.6 µM
Cc1cnc(Nc2nc3ccccc3o2)nc1C(=O)Nc1cccc(C(F)(F)F)c1 | inconclusive [activator, single point]
C/C(=N/NC(=O)c1ccco1)c1cccc(NC(=O)c2ccc(C)o2)c1 | inactive
CC(C)n1c(NCc2ccccc2O)nc2ccccc21 | inactive
Cc1nc(CN2CCCCC2)cc(=O)[nH]1 | inconclusive [activator, single point]
COc1cc(OC)c(NS(=O)(=O)c2cc(C(=O)OC(C)C(=O)NC3CC3)c(Cl)cc2Cl)cc1Cl (stereo not given) | inconclusive [activator, single point]
Cc1ccc2c(Cl)c(C(=O)Nc3ccc4c(c3)OCO4)sc2c1 | inconclusive [activator, partial curve]
CSc1nc(Oc2ccccc2)c2sccc2n1 | inconclusive [activator, partial curve, poor fit]
O=C(CSc1ncnc2sc3c(c12)CCCC3)c1ccco1 | inconclusive [activator, single point]
Cc1ccc(-c2nn(-c3ccccc3)cc2/C=N/NC(=O)c2ccncc2)o1 | inconclusive [activator, single point]
COc1ccc(-c2noc(CN(C(=O)c3ccoc3C)C(C)C)n2)cc1 | inconclusive [activator, single point]
CCOC(=O)c1ccc(N2C(=O)c3n[nH]c(C)c3C2c2ccc(OC)cc2)cc1 (stereo not given) | inconclusive [activator, partial curve, poor fit]
Cn1nnnc1Sc1ncnc2scc(-c3ccc(C#N)cc3)c12 | inconclusive [activator, full curve, poor fit]
O=C(CN1C(=O)NC2(CCCCC2)C1=O)N1CCN(c2ncccn2)CC1 | inactive
CCc1nnc(NS(=O)(=O)c2ccc(NC(=S)NC(=O)c3ccc(Br)cc3)cc2)s1 | inconclusive [activator, single point]
COc1ccccc1-c1c(C)nn2c(N3CCC(C)CC3)cc(C)nc12 | inconclusive [activator, partial curve]
CC(NCc1ccccc1O)C12CC3CC(CC(C3)C1)C2 (stereo not given) | inconclusive [activator, single point]
Cc1ccc(C(=O)NCc2ccccn2)cc1NC1=NC2CS(=O)(=O)CC2S1 (stereo not given) | inactive
CCC(=O)Nc1nonc1-c1nc2ccccc2n1N(C(=O)CC)C(=O)CC | inconclusive [activator, single point]

— PubChem BioAssay AID624296 (National Center for Advancing Translational Sciences (NCATS), 2012)
